Values joined by “and” are separate entries in the source; they are usually repeats but may differ in a detail not shown here. Identical values can stand only once. Among all 360,000 compounds or so, about 25,000 (6.9%) were called active. This list was built around the results that the source calls inconclusive (neither active nor inactive); the mix of calls is not that of the screen. Calls come from the whole dose curve; as a rule, active = well fitted inhibition curve with a large enough effect; inconclusive = small, poorly fitted or top-dose-only effect; inactive = flat fitted curve, though single readings scatter. A potency beside an inconclusive call is a rough fit, not a confirmed value.
Target: Luciferin 4-monooxygenase (Photinus pyralis) (UniProt P08659)
UniProt P08659, sequence (P08659 whole entry, looked up): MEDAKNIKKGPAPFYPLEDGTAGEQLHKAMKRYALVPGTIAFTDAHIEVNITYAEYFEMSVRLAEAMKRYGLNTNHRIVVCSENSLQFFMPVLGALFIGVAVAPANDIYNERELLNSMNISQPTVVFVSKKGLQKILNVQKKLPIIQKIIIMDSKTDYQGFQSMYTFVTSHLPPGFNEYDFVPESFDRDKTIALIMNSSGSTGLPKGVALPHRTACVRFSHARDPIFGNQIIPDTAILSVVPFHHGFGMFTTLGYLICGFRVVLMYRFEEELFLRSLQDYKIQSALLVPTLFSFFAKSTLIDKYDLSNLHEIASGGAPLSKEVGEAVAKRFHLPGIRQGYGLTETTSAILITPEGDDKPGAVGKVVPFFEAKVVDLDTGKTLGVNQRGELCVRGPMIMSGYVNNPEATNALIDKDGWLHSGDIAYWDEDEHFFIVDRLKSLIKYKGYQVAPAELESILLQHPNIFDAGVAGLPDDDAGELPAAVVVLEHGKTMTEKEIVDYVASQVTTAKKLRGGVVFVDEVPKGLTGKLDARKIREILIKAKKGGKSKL
Assay: qHTS profiling assay for firefly luciferase inhibitor/activator using purifed enzyme and Km concentrations of substrates (counterscreen for miR-21 project); note: nearly all actives have a fitted effect of over 55% in size;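 for activity change, negative = inhibition: plate controls were vehicle for no effect and reference inhibitor for full effect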
Details: purified FLuc, luminescence inhibition; activity change, negative = inhibition: at 57.5 µM (top of the series)
Outline: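 Biochemical qHTS of compounds, final roughly 60 µM downward over six points, against 10 nM purified firefly luciferase using Km concentrations of substrates (10 uM D-luciferin, 10 uM ATP) in Tris acetate pH 7.5 buffer; luminescence output.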
Potency is the fitted concentration of half-maximal effect; tags give direction and shape of the fitted curve.

Structure (SMILES)	Potency	activity change, negative = inhibition
Clc1ccc(-c2nnsc2SCc2ccccc2)cc1	inconclusive: 21.3 µM [inhibitor, single point]	
CC(C)[n+]1ccn(C2=C([O-])c3ccccc3C(=O)/C2=N\S(=O)(=O)c2ccccc2)c1		inactive: -1.82%
Cc1onc(-c2ccccc2Cl)c1C(=O)Nc1sc2c(c1C#N)CCC2		inactive: 8.99%
CN(Cc1ccccc1)C(=O)c1[nH]cnc1C(=O)Nc1nccs1	inconclusive: 15.1 µM [inhibitor, single point]	
CCC(=O)Oc1ccc2c(C)cc(=O)oc2c1C	inconclusive: 37.9 µM [inhibitor, partial curve, poor fit]	
COc1ccc2nc3sc(C(=O)NCCN4CCc5ccccc5C4)cc3cc2c1	inconclusive: 10.7 µM [inhibitor, partial curve]	
COc1ccc(NC(=O)/C=C/c2cccc(Br)c2)cn1	active: 13.5 µM	
CC(=O)c1ccc(NC(=O)c2cc3nc4c(c(C(F)(F)F)n3n2)CCCC4)cc1	inconclusive: 0.953 µM [inhibitor, partial curve, poor fit]	
C[C@@]12C(=O)N(CC3CCCO3)CC(=O)N1[C@H]1c3ccccc3OC[C@@H]1[C@@H]2c1ccccc1 (some centres not stated)		inactive: 5.15%
CC(=O)N1CC[n+]2c(-c3ccc(Cl)cc3Cl)csc21	inconclusive: 23.9 µM [inhibitor, partial curve, poor fit]	
Cn1c(-c2ccc(F)cc2)cnc1SCC(=O)N1CCCc2ccccc21	inconclusive: 23.9 µM [inhibitor, partial curve, poor fit]	
CSc1ccc(CN(C)C(=O)c2cc3ccccc3o2)cc1	active: 16.9 µM	
COc1cccc(N(C(=O)c2nc3nccc(C)n3n2)c2nc3ccccc3s2)c1	active: 10.7 µM	
CCCOc1ccc(/C=C2/C(=O)ON=C2C)cc1OCC	inconclusive: 37.9 µM [inhibitor, partial curve, poor fit]	
Cc1csc2c(N3CCC(C(=O)O)CC3)ncnc12	active: 16.9 µM	
CCOC(=O)CSc1nc2ccc(NC(=O)c3ccccc3F)cc2s1	active: 15.1 µM	
CCC(C)N(C(=O)CSc1nc(-c2ccccc2)cs1)C1CCS(=O)(=O)C1 (configuration not stated)	active: 16.9 µM	
CC(C)N(C(=O)Nc1ccc2nsnc2c1)C(C)C	inconclusive: 21.3 µM [inhibitor, partial curve, poor fit]	
Fc1ccc(-c2cn3cc(Cc4ccc(Cl)cc4)sc3n2)cc1	active: 3.01 µM	
CCC(CC)C(=O)Nc1cccc(-c2nc3ccccc3s2)c1	inconclusive: 30.1 µM [inhibitor, single point]	
Cc1cc(/C=N\O)c(C)n1-c1ccncc1		inactive: 0.0815%
Cc1nc(C(F)(F)F)ccc1C(=O)Nc1ccc2ccccc2n1	inconclusive: 37.9 µM [inhibitor, partial curve, poor fit]	
O=C(COc1ccc2c(c1)OCO2)Nc1ccccc1C(F)(F)F	inconclusive: 30.1 µM [inhibitor, single point]	
CCCc1cc(=O)oc2cc(OCC(=O)N3CCOCC3)c(Cl)cc12		inactive: 0.267%

Structure (SMILES)	Potency	activity change, negative = inhibition
Cc1nc(C(=O)NCCO)cc2c1[nH]c1ccccc12	inconclusive: 37.9 µM [inhibitor, single point]	
Cc1ccc(-c2cc(C(=O)NCCN3CCOCC3)c3ccccc3n2)o1	inconclusive: 26.9 µM [inhibitor, single point]	
CCC(C(=O)Nc1cc(-c2nc3cccnc3s2)ccc1C)c1ccccc1 (configuration not stated)	active: 10.7 µM	
CC(=O)c1ccc(N2CCN(S(=O)(=O)c3ccc4[nH]c5c(c4c3)CCCC5)CC2)cc1		inactive: -0.829%
O=C(NCCC1=CCCCC1)c1ccc2c(c1)ncn2-c1ccc(F)c(F)c1		inactive: -13.3%
O=C(NNC(=O)c1cc(O)c(O)c(O)c1)NC1CCCCC1	inconclusive: 21.3 µM [inhibitor, partial curve, poor fit]	
Cc1cc(C)n2nc(C(=O)NCCc3ccccc3)nc2n1	inconclusive: 21.3 µM [inhibitor, single point]	
O=C(NCc1cccc(F)c1)c1cccc(NC(=O)c2nsc3ccccc23)c1	active: 8.49 µM	
COc1ccc(C(=O)/C=C/c2ccsc2)cc1CSCC(=O)O	inconclusive: 19 µM [inhibitor, partial curve]	
CCc1ccc(Nc2nc(N)nc(CSc3nc4ccccc4s3)n2)cc1	inconclusive: 23.9 µM [inhibitor, partial curve, poor fit] and inconclusive: 10.7 µM [inhibitor, partial curve, poor fit]	
CC1CN(S(=O)(=O)c2cccc(C(=O)N(Cc3nnc(-c4ccccc4Cl)o3)C3CC3)c2)CC(C)O1 (configuration not stated)	inconclusive: 23.9 µM [inhibitor, single point]	
CC(=O)Nc1cccc(NC(=O)c2c(-c3ccccc3)c(-c3ccccc3)nn(C)c2=O)c1		inactive: -12.7%
O=C(Nc1c2c(nn1-c1ccccc1)CS(=O)C2)c1ccco1 (configuration not stated)		inactive: 4.48%
CC(C)(C)c1ccc(C(=O)N2CCCN(C(=O)c3ccc(C(C)(C)C)cc3)CC2)cc1		inactive: -7.83%
Cc1nnsc1C(=O)N/N=C/c1ccc2ccccc2c1O	inconclusive: 19 µM [inhibitor, partial curve]	
COc1ccc(S(=O)(=O)N2CCCCCC2)cc1C(=O)NCc1cccs1		inactive: -0.571%
CN(C)C(=O)NC(O)C(Cl)Cl (configuration not stated)		inactive: 3.39%
CC(=O)c1cccc(NC(c2ccc(F)cc2)c2nnc(-c3ccccc3)o2)c1 (configuration not stated)	inconclusive: 30.1 µM [inhibitor, partial curve, poor fit]	
CCOc1cc(/C=C2/C(=O)N(c3ccccc3)N=C2C)ccc1OC(=O)c1cccs1	inconclusive: 10.7 µM [inhibitor, partial curve]	
Nc1cc(C(=O)OCC(=O)N2CCOCC2)ccc1Cl	inconclusive: 30.1 µM [inhibitor, partial curve, poor fit]	
COc1ccc(-c2cn3nc(N4CCCC(C(=O)NCc5ccccc5Cl)C4)sc3n2)cc1 (configuration not stated)	active: 9.53 µM	
COc1ccc(N=C/C=C2\C=C(c3ccccc3)OC(C)(C)O2)cc1	inconclusive: 23.9 µM [inhibitor, partial curve, poor fit]	
Nc1cc(=O)[nH]c(SCC(=O)c2ccc(O)cc2O)n1		inactive: 6.68%
Cc1cc(NC(=O)C(C)C)ncc1NC(=O)c1ccccn1	inconclusive: 23.9 µM [inhibitor, single point]	

Structure (SMILES)	Potency	activity change, negative = inhibition
COc1cc(OC)cc(N2CCN(S(=O)(=O)c3ccc(-n4cnnn4)cc3)CC2)c1	inactive	
COc1ccc(/C=N/OCC(=O)Nc2nc3ccccc3s2)cc1	inconclusive: 26.9 µM [inhibitor, partial curve]	
COC(=O)c1[nH]c2cc(C)ccc2c1NC(=O)CN1CCOCC1		inactive: -7.13%
COc1ccccc1-n1c(SCC(=O)N2CCc3ccccc32)nc2c(c1=O)SCC2	inconclusive: 26.9 µM [inhibitor, partial curve, poor fit]	
Cc1ccc(N2C(=O)c3ccccc3C2=O)cc1Cl	inconclusive: 12 µM [inhibitor, partial curve]	
O=C(Cn1c(-c2cscn2)nc2ccccc21)Nc1cc(F)ccc1F	inconclusive: 37.9 µM [inhibitor, partial curve, poor fit]	
COC(=O)C1=C(Nc2ccccc2NC(=O)c2ccccc2C(=O)O)CSC1	inconclusive: 26.9 µM [inhibitor, single point]	
COc1ccc(/C=N/NC(=O)c2ccncc2)c(OC)c1	inconclusive: 16.9 µM [inhibitor, partial curve]	
O=C(Nc1ccccc1)Oc1cccc(Br)c1	inconclusive: 26.9 µM [inhibitor, single point]	
CCOC(=O)C1CCCCN1C(=O)c1oc2c(Cl)cc(C)cc2c1C (configuration not stated)	active: 12 µM	
COC(=O)c1[nH]c2cc(OC)c(OC)cc2c1NC(=O)Oc1ccccc1	inconclusive: 37.9 µM [inhibitor, single point]	
O=C(O)CC1S/C(=N/N=C/c2ccc(-c3ccc(Cl)c([N+](=O)[O-])c3)o2)NC1=O (configuration not stated)	inconclusive: 15.1 µM [inhibitor, partial curve]	
O=C(CSc1ccccn1)Nc1cccc(S(=O)(=O)N2CCCC2)c1	inconclusive: 12 µM [inhibitor, partial curve, poor fit]	
COc1cccc(/C=N/Nc2ncnc(N)c2[N+](=O)[O-])c1OC	active: 4.78 µM	
CC(C)NC(=O)C1CCN(C2CCN(C(=O)c3scc4c3CCCC4)CC2)CC1		inactive: -0.602%
CN(CC1CCCO1)S(=O)(=O)c1ccc(C(=O)Nc2nc3cc4c(cc3s2)OCO4)cc1 (configuration not stated)		inactive: -5.43%
c1coc(-c2nc3nc4ccccc4n3nc2-c2ccco2)c1	inconclusive: 6.75 µM [inhibitor, partial curve]	
O=C(Nc1ccc(Cl)cn1)c1ccc(COCC(F)(F)C(F)F)o1	inconclusive: 16.9 µM [inhibitor, partial curve]	
Cc1nnc2nc(-c3ccccc3)nc(-c3ccccc3)n12		inactive: -7.07%
O=C(Nc1ccc(S(=O)(=O)N2CCCCC2)cc1)C1CCN(C(=O)c2ccc(F)cc2)CC1		inactive: -0.175%
Nc1c(Cl)ncnc1N/N=C/c1ccc2ccccc2n1	active: 4.78 µM	
CCOc1cc(C2Nc3cccc4cccc(c34)N2)ccc1O	active: 13.5 µM	
CCOC(=O)c1sc(NC(=O)CSc2n[nH]c(CC)n2)nc1C		inactive: -0.887%
Cc1ccc(S(=O)(=O)N[C@H](C(=O)OCC(=O)NC(=O)Nc2ccc3c(c2)OCCO3)C(C)C)cc1	inconclusive: 37.9 µM [inhibitor, partial curve, poor fit]	

From PubChem BioAssay AID588342 (National Center for Advancing Translational Sciences (NCATS), 2011)
